The supplement of paper PMC11417369
The other results are listed elsewhere or left out.

system: PfAP2-HC AP2 domain (GST-tagged); test: gcPBM binding intensity (ln(normalized median fluorescence intensity)); higher = stronger DNA binding
In short: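 After 1 h on an Agilent 4 × 180k array of primer-extended double-stranded 36-bp intergenic genomic probes and negative controls, bound GST-tagged P. falciparum DNA-binding domains were detected with Alexa488 anti-GST antibody and scanned at 488 nm. The domains had been expressed in E. coli, and binding took place in 1× PBS with 1% milk, 0.2 mg/ml BSA, 0.5% salmon testes DNA and 0.03% Triton X-100. Binding intensity is the highest Masliner-normalised natural-log median intensity across replicate spots of either probe orientation.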

| Sequence | gcPBM binding intensity (ln) |
| --- | --- |
| AAAAGAATATAAAGATACATTGTGATATGGGACAAA [CACACA_negctrl_site405] | 9.82 |
| TATATATATATTGAAGTGCAAAATACTGTACGTAAT | 9.75 |
| TTAATTCTACTTATTACACACATATTAATCAAAAAT [CACACA_site1478] | 9.7 |
| TATATATATATAAACAGTACACAAATTGTAAATAAA [XGTACX_site8268] | 9.97 |
| GTTAATATTTACTACACACACTTAAAATATGTATAT [CACACA_site4194] | 9.92 |
| TTTTCATTTTTCTTTACACACATATATTTATTTATA [CACACA_site7119] | 9.97 |
| ATATTATAATTAAAACGTACGTATTTATGAATTCAT [XGTACX_site1047] | 9.58 |
| TACATAAATTAAAACACACACACACTAAAAAAAAAA [CACACA_site7130] | 10.5 |
| TATTAATTAAACCATACACACATAATTTTTTTATAA [CACACA_site843] | 9.85 |
| ATGGAAGGAAACAATAAAAAAAAAAAAAAATATATA [XGTACX_negctrl_site594] | 9.39 |
| CATTTAAAGGACAAGCTGCACTTACAAAATAAAAAA | 9.47 |
| AATGACAACCTTGTCACACATATATATATATATATA [CACACA_site5977] | 9.62 |
| TTTTTTATTTGACAAGCACACACTTAAATATATATA [CACACA_site3358] | 9.82 |
| AAATGAGTATTCATATGTACACAAATAAAAAATTAA [XGTACX_site2968] | 9.8 |
| AGGTTAAAAATAAATACACACATTTTATGTCTGTAT [CACACA_site996] | 9.77 |
| ACTATACAGTTATACACACACATATATATATAATAT [CACACA_site310] | 10.1 |
| TTTTTTTTTTAATAAAGTACATATAAATTACCTAAT [XGTACX_site4434] | 9.25 |
| ATTTCTAGTTTAAGATGTACTTTAATAAAAATTATT [XGTACX_site4820] | 9.48 |
| ATCTTTGGAAATTTATGTACTTATATTTATATTGTA [XGTACX_site6606] | 9.74 |
| AAATATCAACAAAAATGTACAAATGTAAAAGAATAT [XGTACX_site4676] | 10 |
| TTATAATATTATAAAATAACATTTATTAATTATTGG [CACACA_negctrl_site1794] | 9.34 |
| TTATTATATTAAAATTGTACTTGCTTTCAATATGAT [XGTACX_site5305] | 9.48 |
| TAAACGTTATATAGTGCATGTCATATTTTATTATAT [TGCATGCA_site935] | 9.62 |

| Sequence | gcPBM binding intensity (ln) |
| --- | --- |
| TTCCCTCCTCAAAATTGTACTAGAATAATAACATAA [XGTACX_site8765] | 9.38 |
| TACACGCTAAAATACACACACACACCCACATATATA [CACACA_site4153] | 10.6 |
| TTTTTTAAACATATTATGTGTATTACATAGTTATGC [XGTACX_negctrl_site596] | 9.47 |
| AAAAAAAAAAAAAACACACACACAAGAGTATATAAA [CACACA_site6580] | 11.1 |
| ATGAATTTATTACATTGTACATTTTTAAAAGGTTAC [XGTACX_site124] | 9.48 |
| TTATATATTTTTTTTTGTACATAGAAGAGGGAAAAA [XGTACX_site2178] | 9.19 |
| TTCCAAAAAATTATTACACACATATGGGCACATATA [CACACA_site679] | 9.78 |
| TATACATACATACATACACACACACCGATATATACA [CACACA_site8184] | 10.8 |
| TGTTTCTGCTCTGGACATTTTTAAAAAAGGGAAAGC [CACACA_negctrl_site1463] | 9.29 |
| ACGCTAATTATGTGCACACAAATTAAAGGTCTACAA [CACACA_site147] | 9.95 |
| TGCCTATTTTGGATGTGTACACATATATATATTTAT [XGTACX_site6741] | 10.2 |
| ACAAAAAAACATGAAACACACACAAATATATATATA [CACACA_site8566] | 10.1 |
| TATAAAATTAAACAAAGTACTAGACATATATATAGA [XGTACX_site3247] | 9.79 |
| ATTCTATAATATAAGAGTACTTATTTTTTTTAATTT [XGTACX_site7671] | 9.57 |
| AATGTTATTTGTTTATCACACATTAGGATGTTTATA [CACACA_site5710] | 9.76 |
| TATATTATAAACATATGTACATATGTATAAATACAT [XGTACX_site722] | 9.66 |
| AAAAAAAAAAAAAAATTAAAGTAATGGAAAAAAAAA [CACACA_negctrl_site1666] | 9.38 |
| AACATATATATATACACACACATATATATATGAAAT [CACACA_site279] | 10.4 |
| ATTATTAATATTATATGTACGCACTATATCAAGGCT [XGTACX_site6468] | 9.6 |
| AAGGTATTTATAACTACACACTTATTTATAACCTAA [CACACA_site6194] | 9.66 |
| TATACCAATGAATGAGTGCAAAGAAGATAAGGAAAA | 9.74 |
| AATAAAATGAAATGAAATAAAAAAAAAAAAAAAATG [TGCATGCA_negctrl_site305] | 9.62 |
| ACTTATTGTGGTTTTGCATGTAGCATTTTTACATAC [TGCATGCA_site247] | 9.92 |

| Sequence | gcPBM binding intensity (ln) |
| --- | --- |
| AGCTATGTATTCTACACACACATACAGACATATATA [CACACA_site3428] | 10.1 |
| TTTGCATTTCTTAATTGTACTTAAAAAAAAAATAAT [XGTACX_site758] | 9.12 |
| AATCATTTTATTATCCTAACAAAAAAAAAATATATT [CACACA_negctrl_site115] | 9.24 |
| ACGATGCATTAATCTGCACACCACAACAAAACGTTT [CACACA_site899] | 9.8 |
| ACAACGCGTTAAATGTGTACATATTTATAAGTATAT [XGTACX_site8777] | 9.9 |
| ATATATATATATTCCACACACACACCCAAAAAAAAA [CACACA_site3649] | 10.5 |
| ACAAAATAAACCACGTGTACAAATTTATAATGTGTA [XGTACX_site1153] | 9.84 |
| TTTTATTTTTTATTTGCACACAATATGTAAAAAAAT [CACACA_site2927] | 9.65 |
| AATAATTTTTAAATATAAACATTTTTTTTTTTTTTT [GTGCAC_negctrl_site532] | 9.3 |
| ATTAAATGCACATATACACACACCCAATTTTAAGTT [CACACA_site3049] | 10.6 |
| TATTTTAAAAAAAAAAGTACACATAATATATATAAC [XGTACX_site5416] | 9.59 |
| ATACATTTATTGTATTGTACATAATATTATATATTC [XGTACX_site7115] | 9.71 |
| TAATATAATAGAAGTGTACACACATATTTATGGGTG [CACACA_site9023] | 10.1 |
| TAATATAATGATGCAGTGCATATGTTAAAATGAAAA | 9.89 |
| TCAAAAGAATAATTGGTGCAAATTATATAATATAAT [GTGCAC_site9804] | 9.66 |
| ATATTTATGGAAAAAGAACACACAATCAAACAAAAA [CACACA_site9233] | 10.3 |
| CTTTTTTATATCTCTACACACATTTATAACCATTTG [CACACA_site4897] | 10.1 |
| ACAAGGAATATATAAGATAATTTTAAATATAACACG [CACACA_negctrl_site1734] | 9.67 |
| ATATATATAATTTTTACACACGCAATAAATATATAT [CACACA_site218] | 9.79 |
| AGGAACATAAGCAATGTATAAACATAAAACTATAAT [CACACA_negctrl_site1832] | 9.88 |
| TAAAGAGAAAAACATACACACACAACAAAATATGTA [CACACA_site8872] | 10.2 |
| TATAAGGTGTCCTATACACACTCCAATAAATATATA [CACACA_site2091] | 9.57 |
| ATTTTTTTCTTAGGAGTGCACTTATATTTATTTTAT | 9.89 |

| Sequence | gcPBM binding intensity (ln) |
| --- | --- |
| TATTAATTAAACCATACACACATAACTTTTTTATAA [CACACA_site6526] | 9.82 |
| AAAAAAAAAAAAAACACACACACACCCACATATACA [CACACA_site2663] | 10.6 |
| AATCAAAATATATCTACACACATTTAAGTAACACAT [CACACA_site3482] | 9.96 |
| TTATAATAAAGAGGAGTGCAAAAAAAAAAAAAAAAA | 9.24 |
| TAAATATCAAAACACACACACAAAAGTGAATAAATA [CACACA_site3762] | 10.6 |
| ACTACAAGGCAATACAGTACATATAAATGTCATAAT [XGTACX_site8468] | 9.72 |
| TACCTTTTATTAATGTGTACCTAAAATATAATACTT [XGTACX_site192] | 9.68 |
| AAAAAGGTTATTGGTACACACATATGTATTTATATA [CACACA_site4464] | 9.86 |
| TAACAAAACCTTATATGTACACACATATACATCACA [XGTACX_site6772] | 10 |
| TTAAAAATGAACATATGTACATATATATATATATAT [XGTACX_site7923] | 10.1 |
| TTATCATTTTAAATCACACACATATATATATATATA [CACACA_site2849] | 9.92 |
| AATAATGAAGCTTATGCACACGTTCATTATTTATAT [CACACA_site5736] | 9.82 |
| ATAATTTTTTTTTTTTTTTTTTGAAAGTAGCATATG [CACACA_negctrl_site732] | 9.19 |
| AAAAGAATTACTTTCACACATATATATCTGTAAATA [CACACA_site5798] | 9.59 |
| TACATATTTATATACACACACACCCTAAAAATATAT [CACACA_site6861] | 10.2 |
| TTTTGAATATTTGGTCGTACGTAAAAATAGATAATT [XGTACX_site5755] | 9.49 |
| TTTCATATTTTGTCCTGTTTTTTTTTTTTTTTTCTT [CACACA_negctrl_site993] | 9.69 |
| TATTTTATGTAAATTGGTACACATATGTCAGTAAAA [XGTACX_site7111] | 9.57 |
| GATGCTAAAATTTATACACACAAAAAAAAAAAATTC [CACACA_site3284] | 9.76 |
| AAAAAAAAAAAATATACACACACACCGACACATAAA [CACACA_site9270] | 10.9 |
| CAATAATTTTTTGTGGGTACAAATAATTTTTTAAAT [XGTACX_site2407] | 9.34 |
